The full ranking holds about 33,000 sequences; the median of “E-score (-0.5 to 0.5)” is about -0.054, and the highest 2% start at about 0.35. The list shows a part of the results.
These sequences were tested against T1, Stb5 (UniProt P38699) (assay: PBM E-score (8-mer binding enrichment) (E-score (-0.5 to 0.5)); higher = stronger / more preferred TF binding; most listed sequences are background and not binding sites). Conditions: protein concentration: 200 nM; construct: GST-full length.
T1 sequence: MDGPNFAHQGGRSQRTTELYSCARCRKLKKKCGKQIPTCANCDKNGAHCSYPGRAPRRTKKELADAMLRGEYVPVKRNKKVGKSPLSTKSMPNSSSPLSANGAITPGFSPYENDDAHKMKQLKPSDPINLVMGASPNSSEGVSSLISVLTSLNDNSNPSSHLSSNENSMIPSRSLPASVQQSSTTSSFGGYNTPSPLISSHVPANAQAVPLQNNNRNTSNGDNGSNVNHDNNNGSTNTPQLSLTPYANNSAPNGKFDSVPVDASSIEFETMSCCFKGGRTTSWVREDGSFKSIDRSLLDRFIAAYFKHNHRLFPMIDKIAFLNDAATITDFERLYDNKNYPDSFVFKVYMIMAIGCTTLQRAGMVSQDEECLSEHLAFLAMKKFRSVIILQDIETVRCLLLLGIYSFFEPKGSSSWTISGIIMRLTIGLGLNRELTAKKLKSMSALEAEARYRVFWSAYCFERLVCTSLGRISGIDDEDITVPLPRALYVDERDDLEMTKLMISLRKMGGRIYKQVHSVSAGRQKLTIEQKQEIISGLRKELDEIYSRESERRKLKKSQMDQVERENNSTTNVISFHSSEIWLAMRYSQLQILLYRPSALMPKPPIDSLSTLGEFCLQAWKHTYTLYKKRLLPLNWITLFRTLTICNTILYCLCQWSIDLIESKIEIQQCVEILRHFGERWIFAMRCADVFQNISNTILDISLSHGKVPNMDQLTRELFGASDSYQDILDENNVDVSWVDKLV
Experimental: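 Universal 'all 10-mer' protein binding microarrays (Agilent AMADID 015681) probed with GST-tagged S. cerevisiae TFs (full-length or DBD) made by in vitro transcription/translation (PURExpress), about 100-200 nM. Bound TF was detected with fluorescent anti-GST. Each ungapped 8-mer (which stands for itself and its reverse complement) is scored by the PBM enrichment score (E-score), a modified Wilcoxon-Mann-Whitney statistic from -0.5 to +0.5, computed with the Universal PBM Analysis Suite. Scale: above 0.35 generally sequence-specific binding.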

Compared with CCAGTGCG, ATCTAGGA is higher in “PBM E-score” value: -0.0766 for the first, -0.0132 for the second.

Compared with AATAAGGT, ATGATAAG is lower in “PBM E-score” value: 0.19 for the first, -0.0226 for the second.

Compared with ACAAGCGT, AATATCGA is higher in “PBM E-score” value: -0.197 for the first, -0.0931 for the second.

Compared with GTTAAGTA, CGCATCCC is higher in “PBM E-score” value: -0.216 for the first, 0.0796 for the second.

Compared with CTCATATA, GATCCGGC is higher in “PBM E-score” value: 0.0112 for the first, 0.255 for the second.

Going from AAACTATT to ACGGGCCT, the “PBM E-score” value rises from 0.013 to 0.376.

Going from CAGCCGAA to CACGGGAG, the “PBM E-score” value rises from -0.172 to -0.0718.

First: CGCCGGTA
Second: CGCGAAAC
The “PBM E-score” value of the first is higher: 0.335 for the first, 0.0812 for the second.

Compared with AGCGCAGA, CGTACGTA is lower in “PBM E-score” value: -0.0263 for the first, -0.15 for the second.

First: GCATTCCA
Second: AAAACTAA
The “PBM E-score” value of the first is higher: -0.0874 for the first, -0.32 for the second.

Going from ATGGTGAA to CTGATGCA, the “PBM E-score” value falls from 0.0462 to -0.267.

Going from ATGAATCC to ACGGCGGG, the “PBM E-score” value rises from 0.0336 to 0.286.

First: CGGGGCGC
Second: GGAGCAAA
The “PBM E-score” value of the first is higher: 0.251 for the first, 0.123 for the second.

Going from TTCAGAAA to CAAGCCTC, the “PBM E-score” value falls from -0.00912 to -0.176.

Compared with CCAAACCC, AACAGGCC is lower in “PBM E-score” value: 0.106 for the first, 0.0168 for the second.

Compared with ATGTAATG, TAATTGGA is higher in “PBM E-score” value: 0.0198 for the first, 0.029 for the second.

Compared with AAGTGATA, AAGTTTCG is higher in “PBM E-score” value: -0.201 for the first, 0.0014 for the second.

Going from ACCTCAAT to CGAATATA, the “PBM E-score” value rises from -0.271 to -0.0142.

First: CGATCAGA
Second: AGTACTTG
The “PBM E-score” value of the first is lower: -0.0796 for the first, -0.0215 for the second.

Going from CGGGCACA to GCCGATAA, the “PBM E-score” value rises from 0.281 to 0.313.

Going from CTCCAGGA to AACATGTT, the “PBM E-score” value rises from -0.186 to -0.149.

Going from CACGGAGA to TAAAATCA, the “PBM E-score” value falls from 0.248 to -0.152.

First: CGACCGCC
Second: ACGTATAG
The “PBM E-score” value of the first is higher: 0.255 for the first, 0.0119 for the second.

Compared with GACTAAAA, AACTTACC is lower in “PBM E-score” value: 0.208 for the first, -0.13 for the second.

Going from CTAACAAC to GTTTCCAA, the “PBM E-score” value rises from -0.177 to -0.0451.

Going from ATGCGCAG to ATAGGATA, the “PBM E-score” value rises from -0.147 to 0.0852.

Compared with AGTCCCTA, GGGTCAAA is higher in “PBM E-score” value: -0.197 for the first, 0.103 for the second.

Going from GTCTAATA to TCGGGAAA, the “PBM E-score” value rises from 0.101 to 0.232.

Going from TATGATAA to AAACGCAT, the “PBM E-score” value falls from 0.00992 to -0.0868.

First: ATTTGACA
Second: CCATCCGA
The “PBM E-score” value of the first is lower: -0.0526 for the first, -0.0433 for the second.

First: ATAATCAA
Second: AGAGTGCC
The “PBM E-score” value of the first is higher: 0.18 for the first, -0.229 for the second.

Going from GCAATTTA to CGGCGGAG, the “PBM E-score” value rises from 0.101 to 0.347.

Compared with CTAAGGGC, AAAGTAGA is higher in “PBM E-score” value: -0.198 for the first, -0.193 for the second.

Going from GCACTGGA to GATCGCTA, the “PBM E-score” value rises from -0.271 to 0.00336.

Compared with CTCAGGGA, GCCAATCC is higher in “PBM E-score” value: -0.334 for the first, 0.066 for the second.

First: CCTGCTCG
Second: CTCGACGA
The “PBM E-score” value of the first is higher: -0.162 for the first, -0.243 for the second.

Going from ATGCGGCA to GCAGGGGC, the “PBM E-score” value falls from 0.156 to -0.22.

First: GTCTGATA
Second: AGAAACCG
The “PBM E-score” value of the first is lower: -0.172 for the first, 0.0444 for the second.

First: CGCTCTAC
Second: ACTTTACA
The “PBM E-score” value of the first is lower: -0.0196 for the first, 0.013 for the second.

First: TATTGGAA
Second: AGGCTCGG
The “PBM E-score” value of the first is lower: -0.121 for the first, -0.00345 for the second.

First: CAGCGCAC
Second: ATTGCCGG
The “PBM E-score” value of the first is lower: 0.0378 for the first, 0.408 for the second.

Going from CCCGACTA to CGGATAAA, the “PBM E-score” value falls from 0.312 to 0.29.

First: ACAGGCAG
Second: ACACCTGA
The “PBM E-score” value of the first is lower: -0.204 for the first, -0.0816 for the second.

First: AAGGAATC
Second: GTTAGCGA
The “PBM E-score” value of the first is lower: -0.122 for the first, -0.0414 for the second.

Compared with ATGCTTCC, ATTACCCG is higher in “PBM E-score” value: -0.157 for the first, 0.176 for the second.

Going from CTCCGCTC to ACACGGCA, the “PBM E-score” value falls from 0.291 to 0.16.

Compared with TCAGCTCA, CATCAATG is lower in “PBM E-score” value: 0.0671 for the first, -0.23 for the second.

First: CTGTTCAC
Second: CACTGACA
The “PBM E-score” value of the first is lower: -0.269 for the first, -0.0323 for the second.

First: AAAGTCTG
Second: CTCCGGTA
The “PBM E-score” value of the first is lower: -0.338 for the first, 0.316 for the second.

Compared with AACTTCGT, CCCACCCG is higher in “PBM E-score” value: -0.19 for the first, -0.0957 for the second.

First: GTTTTTGA
Second: ACGGCATC
The “PBM E-score” value of the first is lower: -0.0784 for the first, 0.198 for the second.

Compared with ACCCAATG, ATGTACTC is higher in “PBM E-score” value: -0.177 for the first, 0.0834 for the second.

First: GTTGTGCA
Second: CCGGTGGC
The “PBM E-score” value of the first is lower: -0.178 for the first, 0.291 for the second.

Compared with AAGACGGT, GCCTTCTA is lower in “PBM E-score” value: 0.173 for the first, -0.239 for the second.

First: AGCCTCAA
Second: ACCTTATC
The “PBM E-score” value of the first is lower: -0.188 for the first, -0.0448 for the second.

Compared with AAGGTTGT, CCCGCACA is higher in “PBM E-score” value: -0.19 for the first, 0.305 for the second.

First: TTAACTAA
Second: TCCCCACA
The “PBM E-score” value of the first is higher: 0.00651 for the first, -0.184 for the second.

Going from GCAAAGTA to AACCTGGG, the “PBM E-score” value rises from -0.229 to -0.188.

First: AAATTCTA
Second: ACGGATCA
The “PBM E-score” value of the first is lower: -0.144 for the first, 0.104 for the second.

Compared with CCGGTATA, AGCGGCGA is lower in “PBM E-score” value: 0.325 for the first, 0.317 for the second.

Compared with GCTTTGCC, AGTCAATA is higher in “PBM E-score” value: -0.223 for the first, -0.0444 for the second.

Compared with GCTTCCAA, CCTTACCC is lower in “PBM E-score” value: -0.0857 for the first, -0.106 for the second.

Going from AATACCCT to CATACGAG, the “PBM E-score” value falls from -0.00882 to -0.166.

Compared with CTTCTATA, GCGCAGGA is higher in “PBM E-score” value: -0.0427 for the first, -0.0349 for the second.

Going from GGGTTCTA to AAAGCTTG, the “PBM E-score” value falls from 0.162 to -0.303.

First: AGTGAGGA
Second: AAAAGCCC
The “PBM E-score” value of the first is lower: -0.15 for the first, 0.324 for the second.

Compared with CGAGGATA, AAGCCTAT is lower in “PBM E-score” value: -0.0273 for the first, -0.128 for the second.

Going from GAAGCGAC to ATCGTGGA, the “PBM E-score” value rises from -0.185 to -0.114.

Going from GCCTCAAA to AACCAAGG, the “PBM E-score” value falls from 0.0102 to -0.0901.

Compared with AAAGGCGT, CTATGCCA is lower in “PBM E-score” value: -0.0876 for the first, -0.262 for the second.

First: GCTAAACA
Second: CTGCAGGC
The “PBM E-score” value of the first is lower: -0.207 for the first, -0.0955 for the second.

Compared with CAACCACG, GGTTATAA is higher in “PBM E-score” value: -0.127 for the first, 0.302 for the second.

Compared with ATGCGCAA, ATTATCCC is higher in “PBM E-score” value: -0.138 for the first, 0.0778 for the second.

Compared with ACCAGCTA, ACTGCCCA is higher in “PBM E-score” value: -0.247 for the first, -0.228 for the second.

First: CGTGAAAG
Second: CCATAGGG
The “PBM E-score” value of the first is higher: -0.0126 for the first, -0.169 for the second.

Compared with CTAAGTGC, TGCAAGCA is lower in “PBM E-score” value: 0.121 for the first, -0.218 for the second.

First: CGTCATTC
Second: AGTCGTCG
The “PBM E-score” value of the first is higher: 0.0466 for the first, -0.072 for the second.

First: AGATGATC
Second: GTCTGCGA
The “PBM E-score” value of the first is higher: -0.0845 for the first, -0.247 for the second.

First: CATGCCTC
Second: AGCCTTCG
The “PBM E-score” value of the first is higher: 0.00542 for the first, -0.226 for the second.

Going from CATGCTCA to CTAGCGGC, the “PBM E-score” value rises from -0.159 to 0.298.

Going from GTAGCTAA to CAGGCAGA, the “PBM E-score” value falls from -0.0293 to -0.19.

First: AGAGGGTG
Second: GCCGCGTA
The “PBM E-score” value of the first is lower: -0.177 for the first, 0.209 for the second.

Compared with AACTGGTC, AGTAGGCC is lower in “PBM E-score” value: 0.023 for the first, -0.12 for the second.

First: CTGAGCAA
Second: CCTTGCAC
The “PBM E-score” value of the first is lower: -0.228 for the first, -0.0796 for the second.

Compared with GAGCGTAC, AGCGATTA is higher in “PBM E-score” value: 0.00703 for the first, 0.0498 for the second.

Going from ATTGCCAC to GAACGTTC, the “PBM E-score” value rises from -0.127 to -0.114.
